# Measured values reported in the supplement of paper PMC8728848.
# The list shows a part of the results.
# B1: OrysaEULS2 (Oryza sativa) (protein)
# chain: MVYCRANPNYAMTARNGAVVLAPANPKDEYQHWIKDMRWSTSIKDEEGYPAFALVNKATGQAIKHSLGQSHPVRLVPYNPEVMDESVLWTESRDVGNGFRCIRMVNNIYLNFDAFHGDKYHGGVRDGTDIVLWKWCEGDNQRWKIQPYYILEQKLISEEDLNSAVDHHHHHH
# Legend:
# Test in all cases: glycan array binding signal (z-score within array); higher = stronger binding
# Settings in all cases: glycan notation: IUPAC condensed, linker removed
# [1] = biological target: GlcNAc(b1-3)Gal(b1-4)GlcNAc(b1-3)Gal(b1-4)GlcNAc(b1-3)Gal(b1-4)GlcNAc(b1-2)Man(a1-3)[GlcNAc(b1-3)Gal(b1-4)GlcNAc(b1-3)Gal(b1-4)GlcNAc(b1-3)Gal(b1-4)GlcNAc(b1-2)Man(a1-6)]Man(b1-4)GlcNAc(b1-4)GlcNAc
# Procedure, shortened: (§1)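 Arrays were curated from the Consortium for Functional Glycomics database, 3228 in total, and kept only where the protein sequence was available. Binding is expressed as a within-array Z-score. This score was averaged across arrays of the same protein sequence at different concentrations or buffers and across linkers, and negative values can be read as non-binding.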
# [2] = biological target: GlcNAc(b1-3)Gal(b1-4)GlcNAc(b1-3)Gal(b1-4)GlcNAc(b1-3)Gal(b1-4)GlcNAc(b1-2)Man(a1-3)[GlcNAc(b1-3)Gal(b1-4)GlcNAc(b1-3)Gal(b1-4)GlcNAc(b1-3)Gal(b1-4)GlcNAc(b1-2)Man(a1-6)]Man(b1-4)GlcNAc(b1-4)[Fuc(a1-6)]GlcNAc
# Procedure, shortened: as §1
# [3] = biological target: GlcNAc(b1-3)Gal(b1-4)GlcNAc(b1-3)Gal(b1-4)GlcNAc(b1-3)Gal(b1-4)GlcNAc(b1-2)[GlcNAc(b1-3)Gal(b1-4)GlcNAc(b1-3)Gal(b1-4)GlcNAc(b1-3)Gal(b1-4)GlcNAc(b1-6)]Man(a1-6)[GlcNAc(b1-3)Gal(b1-4)GlcNAc(b1-3)Gal(b1-4)GlcNAc(b1-3)Gal(b1-4)GlcNAc(b1-2)Man(a1-3)]Man(b1-4)GlcNAc(b1-4)[Fuc(a1-6)]GlcNAc
# Procedure, shortened: as §1
# [4] = biological target: GlcNAc(b1-3)Gal(b1-4)GlcNAc(b1-3)Gal(b1-4)GlcNAc(b1-3)Gal(b1-4)GlcNAc(b1-3)Gal(b1-4)GlcNAc(b1-2)Man(a1-3)[GlcNAc(b1-3)Gal(b1-4)GlcNAc(b1-3)Gal(b1-4)GlcNAc(b1-3)Gal(b1-4)GlcNAc(b1-3)Gal(b1-4)GlcNAc(b1-2)Man(a1-6)]Man(b1-4)GlcNAc(b1-4)GlcNAc
# Procedure, shortened: as §1
# [5] = biological target: GlcNAc(b1-3)Gal(b1-4)GlcNAc(b1-3)Gal(b1-4)GlcNAc(b1-3)Gal(b1-4)GlcNAc(b1-3)Gal(b1-4)GlcNAc(b1-2)Man(a1-3)[GlcNAc(b1-3)Gal(b1-4)GlcNAc(b1-3)Gal(b1-4)GlcNAc(b1-3)Gal(b1-4)GlcNAc(b1-3)Gal(b1-4)GlcNAc(b1-2)Man(a1-6)]Man(b1-4)GlcNAc(b1-4)[Fuc(a1-6)]GlcNAc
# Procedure, shortened: as §1
# [6] = biological target: GlcNAc(b1-3)Gal(b1-4)GlcNAc(b1-3)Gal(b1-4)GlcNAc(b1-3)Gal(b1-4)GlcNAc(b1-3)Gal(b1-4)GlcNAc(b1-2)[GlcNAc(b1-3)Gal(b1-4)GlcNAc(b1-3)Gal(b1-4)GlcNAc(b1-3)Gal(b1-4)GlcNAc(b1-3)Gal(b1-4)GlcNAc(b1-6)]Man(a1-6)[GlcNAc(b1-3)Gal(b1-4)GlcNAc(b1-3)Gal(b1-4)GlcNAc(b1-3)Gal(b1-4)GlcNAc(b1-3)Gal(b1-4)GlcNAc(b1-2)Man(a1-3)]Man(b1-4)GlcNAc(b1-4)[Fuc(a1-6)]GlcNAc
# Procedure, shortened: as §1
# [7] = biological target: GlcNAc(b1-3)Gal(b1-4)GlcNAc(b1-3)Gal(b1-4)GlcNAc(b1-3)GalNAc
# Procedure, shortened: as §1
# [8] = biological target: GlcNAc(b1-3)Gal(b1-4)GlcNAc(b1-3)GalNAc
# Procedure, shortened: as §1
# [9] = biological target: GlcNAc(b1-3)Gal(b1-4)GlcNAc(b1-3)[GlcNAc(b1-3)Gal(b1-4)GlcNAc(b1-3)]GalNAc
# Procedure, shortened: as §1
# [10] = biological target: GlcNAc(b1-3)Gal(b1-4)GlcNAc(b1-6)[Gal(b1-3)]GalNAc
# Procedure, shortened: as §1
# [11] = biological target: GlcNAc(b1-3)Gal(b1-4)GlcNAc(b1-6)[GlcNAc(b1-3)Gal(b1-3)]GalNAc
# Procedure, shortened: as §1
# [12] = biological target: GlcNAc(b1-3)Gal(b1-4)GlcNAc(b1-6)[GlcNAc(b1-3)]Gal(b1-4)GlcNAc
# Procedure, shortened: as §1
# GlcNAc(b1-3)GalNAc = biological target: GlcNAc(b1-3)GalNAc
# Procedure, shortened: as §1
# GlcNAc(b1-3)Man = biological target: GlcNAc(b1-3)Man
# Procedure, shortened: as §1
# [13] = biological target: GlcNAc(b1-3)[GlcNAc(b1-4)][GlcNAc(b1-6)]GlcNAc
# Procedure, shortened: as §1
# [14] = biological target: GlcNAc(b1-3)[GlcNAc(b1-6)]Gal(b1-4)GlcNAc
# Procedure, shortened: as §1
# [15] = biological target: GlcNAc(b1-3)[GlcNAc(b1-6)]GalNAc
# Procedure, shortened: as §1
# [16] = biological target: GlcNAc(b1-4)Gal(b1-4)GlcNAc
# Procedure, shortened: as §1
# GlcNAc(b1-4)GlcNAc = biological target: GlcNAc(b1-4)GlcNAc
# Procedure, shortened: as §1
# [17] = biological target: GlcNAc(b1-4)GlcNAc(b1-4)GlcNAc
# Procedure, shortened: as §1
# [18] = biological target: GlcNAc(b1-4)GlcNAc(b1-4)GlcNAc(b1-4)GlcNAc(b1-4)GlcNAc
# Procedure, shortened: as §1
# [19] = biological target: GlcNAc(b1-4)GlcNAc(b1-4)GlcNAc(b1-4)GlcNAc(b1-4)GlcNAc(b1-4)GlcNAc
# Procedure, shortened: as §1
# [20] = biological target: GlcNAc(b1-4)[GlcNAc(b1-6)]GalNAc
# Procedure, shortened: as §1
# [21] = biological target: GlcNAc(b1-6)Gal(b1-4)GlcNAc
# Procedure, shortened: as §1
# GlcNAc(b1-6)GalNAc = biological target: GlcNAc(b1-6)GalNAc
# Procedure, shortened: as §1
# GlcNAc3Prop(b1-4)GlcNAc = biological target: GlcNAc3Prop(b1-4)GlcNAc
# Procedure, shortened: as §1
# [22] = biological target: GlcNAc6S(b1-3)Gal(b1-4)GlcNAc
# Procedure, shortened: as §1
# Kdn(a2-3)Gal(b1-3)GalNAc = biological target: Kdn(a2-3)Gal(b1-3)GalNAc
# Procedure, shortened: as §1
# Kdn(a2-3)Gal(b1-3)GlcNAc = biological target: Kdn(a2-3)Gal(b1-3)GlcNAc
# Procedure, shortened: as §1
# Kdn(a2-3)Gal(b1-4)Glc = biological target: Kdn(a2-3)Gal(b1-4)Glc
# Procedure, shortened: as §1
# Kdn(a2-3)Gal(b1-4)GlcNAc = biological target: Kdn(a2-3)Gal(b1-4)GlcNAc
# Procedure, shortened: as §1
# [23] = biological target: Kdn(a2-3)Gal(b1-4)[Fuc(a1-3)]GlcNAc
# Procedure, shortened: as §1
# Kdn(a2-6)Gal(b1-4)GlcNAc = biological target: Kdn(a2-6)Gal(b1-4)GlcNAc
# Procedure, shortened: as §1
# [24] = biological target: Man(a1-2)Man(a1-2)Man(a1-3)Man
# Procedure, shortened: as §1
# [25] = biological target: Man(a1-2)Man(a1-2)Man(a1-6)[Man(a1-3)]Man
# Procedure, shortened: as §1
# Man(a1-2)Man(a1-3)Man = biological target: Man(a1-2)Man(a1-3)Man
# Procedure, shortened: as §1
# [26] = biological target: Man(a1-2)Man(a1-3)[Man(a1-2)Man(a1-6)]Man
# Procedure, shortened: as §1
# [27] = biological target: Man(a1-2)Man(a1-3)[Man(a1-2)Man(a1-6)]Man(a1-6)[Man(a1-2)Man(a1-2)Man(a1-3)]Man
# Procedure, shortened: as §1
# [28] = biological target: Man(a1-2)Man(a1-3)[Man(a1-2)Man(a1-6)]Man(a1-6)[Man(a1-2)Man(a1-2)Man(a1-3)]Man(b1-4)GlcNAc(b1-4)GlcNAc
# Procedure, shortened: as §1
# [29] = biological target: Man(a1-2)Man(a1-3)[Man(a1-6)]Man(a1-6)[Man(a1-2)Man(a1-3)]Man(b1-4)GlcNAc(b1-4)GlcNAc
# Procedure, shortened: as §1
# [30] = biological target: Man(a1-2)Man(a1-6)[Man(a1-3)]Man(a1-6)[Man(a1-2)Man(a1-2)Man(a1-3)]Man
# Procedure, shortened: as §1
# [31] = biological target: Man(a1-2)Man(a1-6)[Man(a1-3)]Man(a1-6)[Man(a1-2)Man(a1-2)Man(a1-3)]Man(b1-4)GlcNAc(b1-4)GlcNAc
# Procedure, shortened: as §1
# Man(a1-3)[Man(a1-6)]Man = biological target: Man(a1-3)[Man(a1-6)]Man
# Procedure, shortened: as §1
# [32] = biological target: Man(a1-3)[Man(a1-6)]Man(a1-6)[Man(a1-2)Man(a1-3)]Man(b1-4)GlcNAc(b1-4)GlcNAc
# Procedure, shortened: as §1
# [33] = biological target: Man(a1-3)[Man(a1-6)]Man(a1-6)[Man(a1-3)]Man
# Procedure, shortened: as §1
binder,measurement,setting,value
B1,glycan array binding signal (z-score),[1],0.247
same,glycan array binding signal (z-score),[2],-0.037
same,glycan array binding signal (z-score),[3],-0.038
same,glycan array binding signal (z-score),[4],0.451
same,glycan array binding signal (z-score),[5],0.29
same,glycan array binding signal (z-score),[6],-0.196
same,glycan array binding signal (z-score),[7],-0.221
same,glycan array binding signal (z-score),[8],-0.247
same,glycan array binding signal (z-score),[9],-0.281
same,glycan array binding signal (z-score),[10],-0.27
same,glycan array binding signal (z-score),[11],-0.224
same,glycan array binding signal (z-score),[12],-0.231
same,glycan array binding signal (z-score),GlcNAc(b1-3)GalNAc,-0.203
same,glycan array binding signal (z-score),GlcNAc(b1-3)Man,-0.189
same,glycan array binding signal (z-score),[13],-0.183
same,glycan array binding signal (z-score),[14],-0.186
same,glycan array binding signal (z-score),[15],-0.192
same,glycan array binding signal (z-score),[16],-0.155
same,glycan array binding signal (z-score),GlcNAc(b1-4)GlcNAc,-0.193
same,glycan array binding signal (z-score),[17],-0.185
same,glycan array binding signal (z-score),[18],-0.188
same,glycan array binding signal (z-score),[19],-0.215
same,glycan array binding signal (z-score),[20],-0.19
same,glycan array binding signal (z-score),[21],-0.155
same,glycan array binding signal (z-score),GlcNAc(b1-6)GalNAc,-0.189
same,glycan array binding signal (z-score),GlcNAc3Prop(b1-4)GlcNAc,-0.154
same,glycan array binding signal (z-score),[22],-0.18
same,glycan array binding signal (z-score),Kdn(a2-3)Gal(b1-3)GalNAc,-0.167
same,glycan array binding signal (z-score),Kdn(a2-3)Gal(b1-3)GlcNAc,-0.204
same,glycan array binding signal (z-score),Kdn(a2-3)Gal(b1-4)Glc,-0.226
same,glycan array binding signal (z-score),Kdn(a2-3)Gal(b1-4)GlcNAc,-0.203
same,glycan array binding signal (z-score),[23],-0.187
same,glycan array binding signal (z-score),Kdn(a2-6)Gal(b1-4)GlcNAc,-0.203
same,glycan array binding signal (z-score),[24],-0.223
same,glycan array binding signal (z-score),[25],-0.201
same,glycan array binding signal (z-score),Man(a1-2)Man(a1-3)Man,-0.196
same,glycan array binding signal (z-score),[26],-0.23
same,glycan array binding signal (z-score),[27],-0.171
same,glycan array binding signal (z-score),[28],0.796
same,glycan array binding signal (z-score),[29],1.35
same,glycan array binding signal (z-score),[30],-0.185
same,glycan array binding signal (z-score),[31],1.51
same,glycan array binding signal (z-score),Man(a1-3)[Man(a1-6)]Man,-0.198
same,glycan array binding signal (z-score),[32],4.8
same,glycan array binding signal (z-score),[33],-0.198
